Measurements from PubChem BioAssay (NCI).
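Five compound concentrations were applied to cells in 96-well plates for 48 hours; endpoints were derived by simple linear interpolation of the resulting dose-response curve. GI50 marks 50% less growth.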 Not every entry of the source has a single result; some have several. The other results are left out here. The source may hold further records. A record mostly stands for its own series of concentrations, not given here; some values may only mark the edge of a range.

Tested on: MDA-MB-468 breast
Assay: NCI anticancer screen, dose series, 48 h

## COC(=O)[C@@H](C)C[C@H](Cc1ccccc1)NC(=O)c1csc([C@@H](C[C@H](C(C)C)N(C)C(=O)[C@@H](NC(=O)[C@H]2CCCCN2C)C2CC2)OC(C)=O)n1
  GI50: 0.13 nM and 1.65 nM
